Test results taken from paper PMC12210021.
Results are given in words; binding and its absence hold for the method and conditions named. In cells and extracts the contact can be indirect. Some binding calls cover weakened binding; strength is not graded here.

T1: NLRP6 (endogenous, mouse primary IECs) (mouse (endogenous in primary IECs from mouse intestinal organoids)) (UniProt Q91WS2)
T1 sequence: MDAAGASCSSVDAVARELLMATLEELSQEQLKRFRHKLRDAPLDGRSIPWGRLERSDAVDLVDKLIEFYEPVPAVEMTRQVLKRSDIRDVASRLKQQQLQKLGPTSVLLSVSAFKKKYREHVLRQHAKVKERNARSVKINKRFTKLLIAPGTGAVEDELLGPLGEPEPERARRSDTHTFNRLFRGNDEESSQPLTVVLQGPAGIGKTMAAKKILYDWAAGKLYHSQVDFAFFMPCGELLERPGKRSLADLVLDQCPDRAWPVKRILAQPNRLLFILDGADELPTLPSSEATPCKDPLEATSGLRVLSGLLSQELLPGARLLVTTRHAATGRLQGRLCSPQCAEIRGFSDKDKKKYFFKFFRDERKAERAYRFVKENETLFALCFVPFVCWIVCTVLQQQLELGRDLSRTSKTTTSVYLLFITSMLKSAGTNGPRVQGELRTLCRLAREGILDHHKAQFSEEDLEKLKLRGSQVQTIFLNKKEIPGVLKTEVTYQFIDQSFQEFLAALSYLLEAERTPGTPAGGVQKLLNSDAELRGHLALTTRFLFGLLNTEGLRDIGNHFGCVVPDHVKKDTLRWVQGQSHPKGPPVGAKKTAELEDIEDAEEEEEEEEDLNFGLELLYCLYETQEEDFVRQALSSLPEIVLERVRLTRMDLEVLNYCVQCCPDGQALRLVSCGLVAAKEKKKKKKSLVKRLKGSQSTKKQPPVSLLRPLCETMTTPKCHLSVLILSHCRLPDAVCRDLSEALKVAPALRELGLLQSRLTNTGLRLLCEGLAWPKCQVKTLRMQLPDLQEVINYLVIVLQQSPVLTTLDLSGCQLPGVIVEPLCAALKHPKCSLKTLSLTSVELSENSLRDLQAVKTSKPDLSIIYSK

T2: TRIM29 (endogenous, mouse primary IECs) (mouse (endogenous in primary IECs from mouse intestinal organoids)) (UniProt Q8R2Q0)
T2 sequence: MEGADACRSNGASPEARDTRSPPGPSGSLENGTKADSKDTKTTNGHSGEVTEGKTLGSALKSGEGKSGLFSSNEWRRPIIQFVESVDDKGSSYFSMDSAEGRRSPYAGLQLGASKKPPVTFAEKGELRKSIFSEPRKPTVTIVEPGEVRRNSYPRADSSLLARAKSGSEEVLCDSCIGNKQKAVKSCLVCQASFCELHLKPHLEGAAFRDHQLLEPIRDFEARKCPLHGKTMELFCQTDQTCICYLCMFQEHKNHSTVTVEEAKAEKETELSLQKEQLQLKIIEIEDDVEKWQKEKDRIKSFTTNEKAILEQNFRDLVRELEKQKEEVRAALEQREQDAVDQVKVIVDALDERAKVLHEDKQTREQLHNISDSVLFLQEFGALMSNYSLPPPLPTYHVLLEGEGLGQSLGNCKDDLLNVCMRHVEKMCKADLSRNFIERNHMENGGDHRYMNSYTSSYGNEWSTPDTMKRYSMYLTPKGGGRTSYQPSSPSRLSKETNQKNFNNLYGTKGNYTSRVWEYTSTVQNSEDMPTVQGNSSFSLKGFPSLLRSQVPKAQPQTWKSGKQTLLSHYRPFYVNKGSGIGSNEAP


Experiments:
[1] = target: T1, NLRP6 (endogenous, mouse primary IECs) (mouse (endogenous in primary IECs from mouse intestinal organoids)); assay: co-IP; endogenous proteins; anti-TRIM29 (or anti-NLRP6) antibody and protein A/G agarose beads from whole-cell lysates of primary IECs from mouse intestinal organoids infected with EMCV or Rotavirus at MOI of 5 for 4 h, then MG132 (5 uM) for 3 h; lysis buffer 50 mM Tris-Cl pH 7.5, 1 mM EDTA, 150 mM NaCl, 1.0 % NP-40; control IgG
[2] = target: T2, TRIM29 (endogenous, mouse primary IECs) (mouse (endogenous in primary IECs from mouse intestinal organoids)); assay: as above
[3] = target: T2, TRIM29 (endogenous, mouse primary IECs) (mouse (endogenous in primary IECs from mouse intestinal organoids)); assay: co-IP; endogenous proteins; anti-TRIM29 antibody and protein A/G agarose beads from whole-cell lysates of primary IECs from mouse intestinal organoids without infection (Mock), MG132 (5 uM) before lysis

Row | binding [1] | binding [2] | Binder | binding [3]
1 | binds | – | TRIM29 (endogenous, mouse primary IECs) (protein, UniProt Q8R2Q0 1-587) MEGADACRSNGASPEARDTRSPPGPSGSLENGTKADSKDTKTTNGHSGEVTEGKTLGSALKSGEGKSGLFSSNEWRRPIIQFVESVDDKGSSYFSMDSAEGRRSPYAGLQLGASKKPPVTFAEKGELRKSIFSEPRKPTVTIVEPGEVRRNSYPRADSSLLARAKSGSEEVLCDSCIGNKQKAVKSCLVCQASFCELHLKPHLEGAAFRDHQLLEPIRDFEARKCPLHGKTMELFCQTDQTCICYLCMFQEHKNHSTVTVEEAKAEKETELSLQKEQLQLKIIEIEDDVEKWQKEKDRIKSFTTNEKAILEQNFRDLVRELEKQKEEVRAALEQREQDAVDQVKVIVDALDERAKVLHEDKQTREQLHNISDSVLFLQEFGALMSNYSLPPPLPTYHVLLEGEGLGQSLGNCKDDLLNVCMRHVEKMCKADLSRNFIERNHMENGGDHRYMNSYTSSYGNEWSTPDTMKRYSMYLTPKGGGRTSYQPSSPSRLSKETNQKNFNNLYGTKGNYTSRVWEYTSTVQNSEDMPTVQGNSSFSLKGFPSLLRSQVPKAQPQTWKSGKQTLLSHYRPFYVNKGSGIGSNEAP | –
2 | – | binds | NLRP9b (endogenous, mouse primary IECs) (protein, UniProt Q66X22 1-1003) MAGSSGYGLLKLLQKLSDEEFQRFKELLREEPEKFKLKPISWTKIENSSKESLVTLLNTHYPGQAWNMMLSLFLQVNREDLSIMAQKKKRHKQTKYKKFMKTTFERIWTLETNTHIPDRNYHLIVEVQYKALQEIFDSESEPVTAIVAGTTGEGKTTFLRKAMLDWASGVLLQNRFQYVFFFSVFSLNNTTELSLAELISSTLPESSETVDDILSDPKRILFILDGFDYLKFDLELRTNLCNDWRKRLPTQIVLSSLLQKIMLPGCSLLLELGQISVPKIRHLLKYPRVITMQGFSERSVEFYCMSFFDNQRGIEVAENLRNNEVLHLCSNPYLCWMFCSCLKWQFDREEEGYFKAKTDAAFFTNFMVSAFKSTYAHSPSKQNRARLKTLCTLAVEGMWKELFVFDSEDLRRNGISESDKAVWLKMQFLQTHGNHTVFYHPTLQSYFAAMFYFLKQDKDICVPVIGSIPQLLGNMYARGQTQWLQLGTFLFGLINEQVAALLQPCFGFIQPIYVRQEIICYFKCLGQQECNEKLERSQTLFSCLRDSQEERFVRQVVDLLEEITVDISSSDVLSVTAYALQKSSKLKKLHLHIQKTVFSEIYCPDHCKTRTSIGKRRNTAEYWKTLCGIFCNLYVLDLDSCQFNKRAIQDLCNSMSPTPTVPLTAFKLQSLSCSFMADFGDGSLFHTLLQLPHLKYLNLYGTYLSMDVTEKLCAALRCSACRVEELLLGKCGISSKACGIIAISLINSKVKHLSLVENPLKNKGVMSLCEMLKDPSCVLQSLMLSYCCLTFIACGHLYEALLSNKHLSLLDLGSNFLEDTGVNLLCEALKDPNCTLKELWLPGCFLTSQCCEEISAVLICNRNLKTLKLGNNNIQDTGVRQLCEALSHPNCNLECLGLDLCEFTSDCCKDLALALTTCKTLNSLNLDWKTLDHSGLVVLCEALNHKRCNLKMLGLDKSAFSEESQTLLQDVEKKNNNLNILHHPWFEAERNKRGTRLVWNSRN | no binding (condition: without infection (Mock))
3 | – | binds | NLRP6 (endogenous, mouse primary IECs) (protein, UniProt Q91WS2 1-869) MDAAGASCSSVDAVARELLMATLEELSQEQLKRFRHKLRDAPLDGRSIPWGRLERSDAVDLVDKLIEFYEPVPAVEMTRQVLKRSDIRDVASRLKQQQLQKLGPTSVLLSVSAFKKKYREHVLRQHAKVKERNARSVKINKRFTKLLIAPGTGAVEDELLGPLGEPEPERARRSDTHTFNRLFRGNDEESSQPLTVVLQGPAGIGKTMAAKKILYDWAAGKLYHSQVDFAFFMPCGELLERPGKRSLADLVLDQCPDRAWPVKRILAQPNRLLFILDGADELPTLPSSEATPCKDPLEATSGLRVLSGLLSQELLPGARLLVTTRHAATGRLQGRLCSPQCAEIRGFSDKDKKKYFFKFFRDERKAERAYRFVKENETLFALCFVPFVCWIVCTVLQQQLELGRDLSRTSKTTTSVYLLFITSMLKSAGTNGPRVQGELRTLCRLAREGILDHHKAQFSEEDLEKLKLRGSQVQTIFLNKKEIPGVLKTEVTYQFIDQSFQEFLAALSYLLEAERTPGTPAGGVQKLLNSDAELRGHLALTTRFLFGLLNTEGLRDIGNHFGCVVPDHVKKDTLRWVQGQSHPKGPPVGAKKTAELEDIEDAEEEEEEEEDLNFGLELLYCLYETQEEDFVRQALSSLPEIVLERVRLTRMDLEVLNYCVQCCPDGQALRLVSCGLVAAKEKKKKKKSLVKRLKGSQSTKKQPPVSLLRPLCETMTTPKCHLSVLILSHCRLPDAVCRDLSEALKVAPALRELGLLQSRLTNTGLRLLCEGLAWPKCQVKTLRMQLPDLQEVINYLVIVLQQSPVLTTLDLSGCQLPGVIVEPLCAALKHPKCSLKTLSLTSVELSENSLRDLQAVKTSKPDLSIIYSK | no binding (condition: without infection (Mock))
